Results as given in PubChem BioAssay AID624417 (National Center for Advancing Translational Sciences (NCATS), 2012).
About 6,400 (1.6%) of roughly 410,000 compounds were called active. This list was built around the results that the source calls inconclusive (neither active nor inactive); the mix of calls is not that of the screen. Calls come from the whole dose curve; as a rule, active = well fitted inhibition curve with a large enough effect; inconclusive = small, poorly fitted or top-dose-only effect; inactive = no such curve, though single readings can be large or run the other way. Potencies of inconclusive entries are left out as doubtful fits.

target: Glucagon-like peptide 1 receptor (Homo sapiens) (UniProt P43220); assay: qHTS of GLP-1 Receptor Inverse Agonists (Inhibition Mode); details: HEK293 GLP-1R CRE-luciferase, luminescence, 24 h, GLP-1R form is constitutively active; series mostly up to 38.3 µM; note: nearly all actives have a fitted effect of over 55% in size
Chain of UniProt P43220 (P43220 whole entry, looked up): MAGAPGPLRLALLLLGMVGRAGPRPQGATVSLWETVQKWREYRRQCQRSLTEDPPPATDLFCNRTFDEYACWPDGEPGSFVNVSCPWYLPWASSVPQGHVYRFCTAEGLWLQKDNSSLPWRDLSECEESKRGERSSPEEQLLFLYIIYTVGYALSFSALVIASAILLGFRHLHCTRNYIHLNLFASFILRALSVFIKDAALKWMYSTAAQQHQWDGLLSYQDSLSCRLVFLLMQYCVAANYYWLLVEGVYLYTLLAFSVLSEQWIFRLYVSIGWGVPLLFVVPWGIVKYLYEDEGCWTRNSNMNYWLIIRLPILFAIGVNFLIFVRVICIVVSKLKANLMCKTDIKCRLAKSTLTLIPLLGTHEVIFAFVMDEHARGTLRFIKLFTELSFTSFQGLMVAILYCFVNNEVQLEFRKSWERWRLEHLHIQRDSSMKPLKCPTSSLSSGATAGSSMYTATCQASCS
Outline: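 Assay principle: reduced luminescence from a cAMP-responsive reporter in HEK293 cells co-expressing a constitutively active GLP-1R. Conditions: 24 hr compound incubation, 37 deg C, 5% CO2.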
Potency is the fitted concentration of half-maximal effect; tags give direction and shape of the fitted curve.

| SMILES | Potency |
| --- | --- |
| COc1cccc(-c2nn(-c3ccc(C)cc3)cc2C(=O)NCC2CCCO2)c1 (stereo not given) | inconclusive [inhibitor, partial curve, poor fit] |
| CS(=O)(=O)Nc1cccc(NC(=O)c2cccc3c(-c4cccc(C(N)=O)c4)coc23)c1 | inconclusive [inhibitor, single point] |
| CCOC(=O)Cn1c(-c2ccccc2)cc(SC)c(C#N)c1=O | active: 10 µM |
| C=CCSC(=C(C#N)C#N)c1cc2c([nH]1)CCCC2 | inconclusive [inhibitor, partial curve, poor fit] |
| COc1cc2nc(N3CCN(C(=O)OCc4ccccc4)[C@H](C(=O)NC(C)(C)C)C3)nc(N)c2cc1OC | inconclusive [inhibitor, partial curve, poor fit] |
| COc1ccc(/C=N/NC(=O)CCc2n[nH]c(=O)[nH]c2=O)cc1OC | inactive |
| Cc1cc(C)c(S(=O)(=O)NCc2csc(-c3ccccc3)n2)c(C)c1 | inconclusive [inhibitor, single point] |
| CCc1ccccc1N(C)C(=O)c1nn(C)c2c1CSc1ccccc1-2 | inconclusive [inhibitor, partial curve, poor fit] |
| CSc1nc(C2CC2)cc(-c2cccs2)c1C#N | inconclusive [inhibitor, single point] |
| O=C(COc1ccccc1[N+](=O)[O-])Nc1cc(-c2nc3cc(Cl)ccc3o2)ccc1Cl | inactive |
| Oc1ccc(-c2csc(Nc3ccccn3)n2)cc1 | inconclusive [inhibitor, single point] |
| COc1ccccc1CNC(=O)CCc1ccccc1 | inactive |
| COc1ccc(Cl)cc1Cn1c(C)c(C(=O)NCc2ccc3c(c2)OCCO3)sc1=O | inconclusive [inhibitor, partial curve, poor fit] |
| CN1/C(=C\C(=S)Nc2ccccc2)C(C)(C)c2ccccc21 | active: 11.2 µM |
| CN1CCC(=NNC(=O)C(=O)NC2CCCCC2)CC1 | inactive |
| CCN(CC)CCNC(=O)c1ccc(NC(=O)c2ccc(S(=O)(=O)N(C)c3ccccc3OC)cc2)cc1 | inconclusive [inhibitor, partial curve, poor fit] |
| Nc1cccc2c1C(=O)N(C(=O)/C=C/c1ccc(F)cc1)C2=O | inconclusive [inhibitor, single point] |
| COc1ccc(CNS(=O)(=O)c2ccc(Br)s2)cc1 | inconclusive [inhibitor, partial curve, poor fit] |
| NC(=O)C1(Nc2ccc(-c3ccc(Cl)cc3)cc2)CCCC1 | inconclusive [inhibitor, partial curve, poor fit] |
| O=C(NCCc1ccccc1)C(=O)c1cn(CC(=O)N2CCCC2)c2ccccc12 | inconclusive [inhibitor, single point] |

| SMILES | Potency |
| --- | --- |
| CC(Sc1nnc(Cc2cccs2)n1C1CCCCC1)C(=O)N1CCc2ccccc21 (stereo not given) | inconclusive [inhibitor, partial curve, poor fit] |
| COC(=O)C1=C(C(=O)OC)[C@@H]2N(C)c3ccccc3[C@@]23C[C@@H](C(=O)OC)N(C(=O)c2cccs2)C3=N1 | inactive |
| Cc1ccc(S(=O)(=O)Cc2ccc(C(=O)N3CCCCC3C)cc2)cc1 (stereo not given) | inconclusive [inhibitor, partial curve, poor fit] |
| CC(C)(C)C(=O)CSc1nnc(Nc2ccccc2)s1 | inconclusive [inhibitor, single point] |
| CCN(CC)CCNC(C(=O)Nc1ccc([N+](=O)[O-])cc1Br)c1ccccc1 (stereo not given) | inconclusive [inhibitor, single point] |
| Cc1cccc(/C=N/N2CCN(c3ccccc3)CC2)c1 | inactive |
| CNC(=O)c1c(O)c2cccc3c2n(c1=O)CCC3 | active: 1.78 µM |
| COc1ccccc1CNc1nc(NCc2ccccc2OC)c2sccc2n1 | active: 11.2 µM |
| CN1CCN(c2ccc(S(=O)(=O)N3CCCCC3)cc2NC(=O)/C=C/c2ccc(OC(F)F)cc2)CC1 | inconclusive [inhibitor, single point] |
| O=c1c2cn[nH]c2nc(SCc2ccccc2F)n1-c1ccc(Br)cc1 | inconclusive [inhibitor, partial curve, poor fit] |
| COc1ccc2c(c1)C(SCC(=O)NCCc1ccc(Cl)cc1)CC(C)(C)O2 (stereo not given) | inconclusive [inhibitor, partial curve, poor fit] |
| CC(C)C(=O)Nc1csc(C(F)(F)F)c1-c1ccccc1 | inconclusive [inhibitor, single point] |
| CC(C)(C)C(=O)Nc1cccc(OC(F)(F)C(F)Cl)c1 (stereo not given) | inconclusive [inhibitor, partial curve, poor fit] |
| CCCCCC(=O)N(c1ccc(OCC)cc1)S(=O)(=O)c1ccc2c(c1)n(C)c(=O)n2C | inactive |
| CCC/C=C/c1ccc(CN2C(C(C)C)C(=O)N(Cc3cn(CCC4OCCCO4)nn3)CCS2(=O)=O)cc1 (stereo not given) | inconclusive [inhibitor, single point] |
| CC(C)N(Cc1nc(-c2ccccc2)no1)S(=O)(=O)c1ccccc1 | inconclusive [inhibitor, partial curve, poor fit] |
| COc1ccc2nc(C)cc(SCC(=O)N/N=C/c3ccc(O)cc3O)c2c1 | inconclusive [inhibitor, partial curve, poor fit] |
| COc1cc(OC)cc(-c2nnc(SCC(=O)N3CCCc4ccccc43)o2)c1 | inconclusive [inhibitor, partial curve, poor fit] |
| CC(=O)OCCNc1cc(SCc2ccco2)c2nonc2c1[N+](=O)[O-] | inconclusive [inhibitor, single point] |
| COc1ccc(N2CCN(C(=O)c3cc4c(s3)-c3ccccc3S(=O)(=O)C4)CC2)cc1 | inconclusive [inhibitor, partial curve, poor fit] |
